From ChEMBL document CHEMBL4888484, “Replenishing the malaria drug discovery pipeline: Screening and hit evaluation of the MMV Hit Generation Library 1 (HGL1) against asexual blood stage Plasmodium falciparum ,using a nano luciferase reporter read-out” (2022)
About 540 (0.36%) of roughly 150,000 compounds showed an effect of 50% or more. Some of the results follow.

What follows are compounds tested on Plasmodium falciparum (assay: Primary screen in NF54 nanoGlo assay, in single point, at 2uM, 72h; a lower Z score goes with more inhibition). Conditions: timepoint 72 hour.
Format: functional, Erythrocyte

Row | Compound | % Inhibition | Z score
1 | Cc1ccc(C(=O)N2CCCC[C@H]2c2cncn2C)c(F)c1 | -9% | 1.18
2 | CN(CCc1ccnn1C)Cc1cc(F)ccc1Br | 6% | -0.76
3 | O=C(NCCc1ccc2c(c1)OCCO2)[C@H]1CCCN(S(=O)(=O)c2cccs2)C1 | 11% | -1.26
4 | Cc1c(NC(=O)Cn2cnc(C#N)n2)c(=O)n(-c2ccccc2)n1C | -4% | 0.61
5 | O=c1sc2ccccc2n1/C=C/c1ccccc1 | 3% | -0.49
6 | Cc1ccc(F)c(CNC(=O)CCc2cn[nH]c2)c1F | -7% | 0.97
7 | O=C(NC[C@H]1CCCS1(=O)=O)c1ccc(C(F)(F)F)[nH]1 | 5% | -0.46
8 | CCN1CCN(C(C)(C)CNC(=O)[C@@H](c2ccccc2C)N(C)C)CC1 | -11% | 1.37
9 | Cc1ccc2nc(CN3C[C@@H]4CC[C@H]3CN(S(=O)(=O)N(C)C)C4)cn2c1 | -6% | 1.2
10 | O=C(Nc1ccccc1-c1cc(F)c(F)c(F)c1)c1ccn2ccnc2c1 | 5% | -0.46
11 | CC1CCC(C(=O)Nc2cccnc2)O1 (stereo unspecified) | -12% | 1.59
12 | Cc1ccc([C@H](C)NC(=O)c2cc(CN3CCC(O)CC3)on2)cn1 | 0% | -0.04
13 | C=CCNC(=O)Cn1c(-c2ccccc2)nn(-c2ccccc2Cl)c1=O | 6% | -0.75
14 | C[C@H](Nc1nc2ccccc2o1)C(=O)N1CCCCC1 | -9% | 0.85
15 | Fc1ccc(-c2csc(N3C[C@@H]4NCCO[C@H]4C3)n2)cc1 | 9% | -1.7
16 | Cc1ccc(-n2nc(C)c([C@@H]3C=C[C@@H](NCc4ccc(F)cc4)C3)c2C)cc1Cl | 30% | -3.39
17 | Cc1ccccc1-c1nnc([C@@H]2CCCO2)o1 | -8% | 1.11
18 | CNc1nc2c(s1)C(=O)NC(C)(C)C2 | -5% | 0.47
19 | CCC(CC)c1nnc(NC(=O)Nc2ccn(C)n2)s1 | 8% | -0.99
20 | CC(C)c1nnc2n1CCN(C(=O)c1cnc(C(C)(C)C)nc1)[C@H]2C | -19% | 1.58
21 | FC(F)c1c2c(nn1-c1nc3ccccc3s1)CCCCC2 | -33% | 3.85
22 | COCCN(CC(=O)Nc1cc(N2CCN(C(=O)NC(C)C)CC2)ccc1Cl)C(=O)c1ccc(Cl)cc1 | -16% | 1.73
23 | C[C@@H](C(=O)NCC1(OCCO)CCOCC1)c1ccccc1 | -9% | 1.57
24 | Cc1ccc(NC(=O)c2cccc(-n3cccn3)n2)cc1-c1ncco1 | -20% | 3.21
25 | O=C(Nc1ccc(F)cc1)c1coc(CN2CCN(C[C@@H](O)CN3CCCCC3)CC2)n1 | -1% | 0.2
26 | O=S1(=O)CC(O)C(NCCC(c2ccccc2)c2ccccc2)C1 (stereo unspecified) | -13% | 1.68
27 | COCC1CCN(C(=O)[C@@H]2CN(c3cnccn3)C[C@H]2COC)CC1 | -8% | 1.27

Row | Compound | % Inhibition | Z score
28 | O=C(Nc1ccc(-c2ccccn2)cn1)c1ccc2[nH]cnc2c1 | 5% | -0.44
29 | O=C(NCC12CC(CO1)C2)Nc1cc(Cl)c(OCC(F)(F)F)c(Cl)c1 | -8% | 1.06
30 | Cc1cc(C[C@H](C)Nc2nc(-c3ccccc3)nc3c2CCNC3)[nH]n1 | -3% | 0.43
31 | Cc1ccc2oc([C@H]3CCN(S(=O)(=O)c4ccc(F)cc4)C3)nc2c1 | -1% | 0.21
32 | Cc1ccc(-c2nc(-c3ccc4c(c3)ncn4CCC(=O)N3CCCCCC3)no2)cc1C | -24% | 3.16
33 | COc1ccc(NC(C)=O)cc1S(=O)(=O)N(CC(=O)Nc1cccc(C)c1C)C[C@H]1CCCO1 | 1% | -0.18
34 | CCn1cc(S(=O)(=O)NCCn2c(C)cnc2C2CCC2)cn1 | -5% | 0.58
35 | CC(C)Oc1ccc(N(C)C(=O)c2nc3cccnc3s2)cc1 | -3% | 0.26
36 | O=C1CN(c2ccnc(C(=O)Nc3ccccc3CCC(F)(F)F)c2)CCN1 | -14% | 1.63
37 | COc1cc(N2CCOC(C)(C)C2)ccc1NC(=O)[C@@H]1CCC(=O)N1C | 4% | -0.75
38 | FC(F)(F)c1ccc(O[C@H]2COCCN(CC3CCCC3)C2)cc1 | -5% | 0.87
39 | CCC(CC)C(=O)N1CCN(c2nc3nccc(-c4ccc5c(c4)OCO5)n3n2)CC1 | -4% | 0.56
40 | N#CCn1cccc(S(=O)(=O)N2CCCCCC2)c1=O | -12% | 1.66
41 | Cc1ccc(NS(=O)(=O)c2ccc3c(c2)C(=O)N(C)c2ncccc2O3)cc1C | -10% | 1.73
42 | COc1cnc(NC(=O)Nc2cc(C3CC3C)n[nH]2)s1 (stereo unspecified) | 5% | -0.94
43 | Cc1ccc(CN2C(=O)COC[C@H]2C(=O)NCC2CC2)cc1 | 1% | -0.16
44 | Cc1cc(Cl)cc2c1NC(=O)C21NC(Cc2c[nH]c3ccccc23)C2C(=O)N(Cc3ccc4c(c3)OCO4)C(=O)C21 (stereo unspecified) | -6% | 1.2
45 | Cc1cnc(-c2cc(F)cc3cccnc23)nc1N | -3% | 0.6
46 | CCc1onc(C)c1NC(=O)NCC1=CCN(C)CC1 | 5% | -0.66
47 | Cc1ccc(S(=O)(=O)Cc2nc(-c3ccc(C(=O)Nc4ccc(C)cc4Cl)cc3)oc2C)cc1 | 29% | -0.64
48 | Cc1cc(-c2nnc(NCc3cccn3C)o2)c(C)o1 | 5% | -0.44
49 | C[C@H]1C(=O)N(c2cnns2)C(=O)N1Cc1ccccc1 | -13% | 1.75
50 | C=CCN1C[C@@H](C(=O)N2CCN(Cc3cc(C)cc(C)c3)C(=O)C2)CC1=O | -13% | 2.07
51 | CC(NC(=O)CCC1CCCO1)c1ccc(-c2cccnc2)cc1 (stereo unspecified) | -7% | 0.82
52 | O=C(c1ccccc1)N1CCN(Cc2cnc3ncccn23)CC1 | -3% | 0.3
53 | CCn1nc(C)cc1C(=O)N1CCCC1C1CCCN1C (stereo unspecified) | -5% | 0.7
